Assay results reported in article PMC4336329 (PLoS ONE, 2015).
Among all 310,000 compounds or so, about 14,000 (4.5%) showed an effect of 50% or more. The effect is printed as a negative number. Some of the results follow.

Target: human ether-à-go-go-related gene (hERG) potassium channel (human, UniProt Q12809)
Test: primary screen, population patch clamp on CHO cells stably expressing hERG
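Further: peak tail current of the secondary pulse compared with the same well before compound.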

Chain of human ether-à-go-go-related gene (hERG) potassium channel (Q12809 whole entry, looked up): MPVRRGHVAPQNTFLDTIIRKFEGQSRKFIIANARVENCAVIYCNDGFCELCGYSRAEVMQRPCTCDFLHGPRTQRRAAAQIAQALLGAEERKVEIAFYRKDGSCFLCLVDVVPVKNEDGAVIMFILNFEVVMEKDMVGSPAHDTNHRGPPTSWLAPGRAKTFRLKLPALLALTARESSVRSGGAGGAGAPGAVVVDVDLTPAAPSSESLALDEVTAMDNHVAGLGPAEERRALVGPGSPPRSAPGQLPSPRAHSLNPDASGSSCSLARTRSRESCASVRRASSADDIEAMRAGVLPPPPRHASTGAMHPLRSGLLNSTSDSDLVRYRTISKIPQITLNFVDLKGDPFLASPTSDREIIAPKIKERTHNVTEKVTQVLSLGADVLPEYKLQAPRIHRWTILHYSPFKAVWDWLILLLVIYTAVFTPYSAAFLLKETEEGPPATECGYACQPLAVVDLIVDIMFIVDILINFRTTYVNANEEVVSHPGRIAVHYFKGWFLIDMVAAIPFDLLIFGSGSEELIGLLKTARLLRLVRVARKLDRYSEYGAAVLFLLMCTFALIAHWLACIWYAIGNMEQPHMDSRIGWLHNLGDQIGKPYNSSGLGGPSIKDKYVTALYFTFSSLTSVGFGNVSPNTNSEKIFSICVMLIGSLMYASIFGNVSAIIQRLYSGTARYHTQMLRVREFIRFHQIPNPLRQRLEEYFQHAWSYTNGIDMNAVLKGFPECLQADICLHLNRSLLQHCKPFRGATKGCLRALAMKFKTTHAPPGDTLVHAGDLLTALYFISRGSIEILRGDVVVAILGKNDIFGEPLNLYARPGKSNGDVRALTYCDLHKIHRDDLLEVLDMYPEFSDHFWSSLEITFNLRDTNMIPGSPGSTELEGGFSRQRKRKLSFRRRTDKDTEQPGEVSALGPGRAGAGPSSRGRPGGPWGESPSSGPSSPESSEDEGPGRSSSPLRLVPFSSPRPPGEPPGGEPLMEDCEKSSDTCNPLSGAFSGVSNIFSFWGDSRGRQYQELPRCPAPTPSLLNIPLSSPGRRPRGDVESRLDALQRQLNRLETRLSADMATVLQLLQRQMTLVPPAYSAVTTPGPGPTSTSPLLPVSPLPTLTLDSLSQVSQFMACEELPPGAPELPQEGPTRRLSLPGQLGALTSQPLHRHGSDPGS

| Structure (SMILES) | hERG current change (%, negative = inhibition) at 10uM |
| --- | --- |
| CC(C1CC1)N(Cc1ccccc1)C(=O)NC(=O)c1ccc(F)cc1 (stereo not drawn) | -3.39% |
| COC(=O)c1ccc(=O)c2nc3/c(=C/O)c(O)cc(=O)c3[nH]c12 | -0.982% |
| CCc1nn(CC(=O)N2CCCCCC2)c(=O)c2cc3ccccc3n12 | -18.6% |
| O=C(Nc1ccc(O)c(C(=O)O)c1)c1cccc(NC(=O)c2ccco2)c1 | 3.91% |
| CSc1nc(C)c(Cc2c(F)cccc2Cl)c(=O)[nH]1 | 8.83% |
| O=C(CSc1nnc(COc2ccccc2Cl)o1)Nc1ccccc1 | 5.87% |
| CCCCc1ccc(NS(=O)(=O)c2cccs2)cc1 | -6.13% |
| CC1CCCCN1Cc1c(O)ccc2c(=O)c(-c3ccccc3)coc12 (stereo not drawn) | -38.2% |
| Cc1nonc1OCCNc1ccc([N+](=O)[O-])cc1[N+](=O)[O-] | -54.7% |
| Cc1nn(CCC(=O)NNC(=S)Nc2ccc(F)cc2)c(C)c1Br | 10.6% |
| CS(=O)(=O)c1nc(-c2cccs2)cc(C(F)(F)F)n1 | -8.38% |
| COc1ccccc1N(CC(=O)NC1CCCC1)S(=O)(=O)c1ccc(C)cc1 | -5.82% |
| CCOC(=O)c1sc(NC(=O)c2cccc(S(=O)(=O)N(CC)CC)c2)cc1C | 0.563% |
| COc1ccc(C2(C)NC(=O)N(CC(=O)Nc3cccnc3Cl)C2=O)cc1 (stereo not drawn) | 2.37% |
| COc1ccc(-c2nnc(SCC(=O)c3cccs3)o2)cc1 | -8.4% |
| CC1(c2nnc(-c3ccccc3)o2)CC(c2c(Cl)cccc2Cl)=NO1 (stereo not drawn) | 23.4% |
| O=C(OCC(=O)c1c[nH]c2ccccc12)c1ccco1 | 8.95% |
| CC1CCN(C(=O)CCc2nnc3ccc(N4CCC5(CC4)OCCO5)nn23)CC1 | 18.6% |
| NC(=O)C1CCN(C(=O)c2ccc(OCC(=O)Nc3cccc(C(F)(F)F)c3)cc2)CC1 | 1.96% |
| C=C(C)COc1ccc(-c2n[nH]c(C)c2-c2ccc(OC)c(OC)c2)c(O)c1 | 21.6% |
| Cc1ccc(S(=O)CCNC(=O)Cc2ccccc2)cc1 (stereo not drawn) | 10.1% |
| COc1ccc(-n2nc(C(=O)NCC(=O)NCC3COc4ccccc4O3)c3ccccc3c2=O)cc1 (stereo not drawn) | -15.5% |

| Structure (SMILES) | hERG current change (%, negative = inhibition) at 10uM |
| --- | --- |
| Cc1cccc(NC(=O)CCC(=O)N/N=C/c2cc([N+](=O)[O-])ccc2O)c1 | 3.6% |
| Cc1ccc(C(=O)N/C(=C\c2ccc(-c3cccc([N+](=O)[O-])c3)o2)C(=O)NCCCN2CCOCC2)cc1 | -74.9% |
| Cc1ccc(OCC(=O)NCCNC(=O)c2ccncc2)cc1C | 15.9% |
| CCCc1cc(=O)oc2cc(C)cc(OCC(=O)N3CCC(C(N)=O)CC3)c12 | -5.95% |
| COc1ccc(N(C2CSC2)S(=O)(=O)c2ccccc2)cc1 | 8.52% |
| Cn1c(SCc2ccc(Br)cc2)nnc1-c1ccncc1 | -28.8% |
| COCCN(CCOC)c1cc(C)c(C#N)c2nc3ccccc3n12 | -15.4% |
| CC(C)CCN1C(=O)c2ccc(C(=O)Nc3c[nH]c(=O)[nH]c3=O)cc2C1=O | 12.4% |
| Clc1ccc(C(c2ccccc2Cl)C(Cl)Cl)cc1 (stereo not drawn) | -1.99% |
| Clc1ccc(-n2cc(COCc3ccccc3)nn2)cc1 | -14.4% |
| Cc1ccc2c(c1)cc(C(=O)N[C@@H](Cc1ccccc1)C(=O)O)n2C | 2.03% |
| C/C(=N\Nc1ccc(C(=O)O)cc1)c1ccc(S(=O)(=O)NCc2ccco2)cc1 | 10.7% |
| CN(C)CCOC(=O)C12CC3(C)CC(C)(CC(C)(C3)C1)C2.Cl | -7.13% |
| Cc1ccc(C)c(-c2ccc(=O)n(Cc3c(F)cccc3Cl)n2)c1 | 3.88% |
| Cc1ccc(C(=O)NCc2cccnc2)cc1S(=O)(=O)Nc1ccccc1 | 3.42% |
| CC(C)OC(=O)/C(=C\c1cccnc1)NC(=O)c1ccccc1 | 4.13% |
| Cn1c(=O)c(Cc2ccccc2)c(O)c2ccccc21 | 5.45% |
| O=C1C2C(c3ccccc3)CC=CC2[C@H](c2ccc3ccccc3c2)N1Cc1ccccc1 (stereo partly drawn) | 19.3% |
| COC(=O)C(NC(=O)CCC(=O)NC(C(=O)OC)c1ccccc1)c1ccccc1 (stereo not drawn) | 10.3% |
| COc1ccc(CCN2C(=O)CC(N3CCC(C(N)=O)CC3)C2=O)cc1OC (stereo not drawn) | 11.4% |
| Cc1cccc(N(C(=O)c2csnn2)C(C(=O)NCc2ccccc2)c2ccncc2)c1 (stereo not drawn) | -18.7% |
| CC(=O)Nc1cc(C(=O)NCCN2CCN(Cc3ccccc3)CC2)ccc1Sc1ccc(C)cc1 | -63.6% |

| Structure (SMILES) | hERG current change (%, negative = inhibition) at 10uM |
| --- | --- |
| O=C(N/N=C/c1cc(Br)cc(Br)c1O)c1ccncc1 | 15.6% |
| Cc1cc(=O)oc(C)c1C(=O)NCc1c(F)cc(F)cc1F | -9.84% |
| CCOC(=O)N1CCN(Cc2ccc(O)c3ncccc23)CC1 | -8.14% |
| O=C(NCCCC(=O)N1CCOCC1)c1cccnc1 | 1.22% |
| NS(=O)(=O)c1ccc(CCNC(=O)c2ccc([N+](=O)[O-])s2)cc1 | -3.62% |
| O=C(NNC(=S)Nc1ccc(F)cc1)C1[C@H]2CCCC[C@@H]12 (stereo partly drawn) | 16.2% |
| COCCNc1c(-c2ccc(OC)cc2)nc2ccc(Cl)cn12 | -39.5% |
| CCOC(=O)c1cc(NC(=O)CNCC(c2ccccc2)N(C)C)cc(C(=O)OCC)c1.O=C(O)C(=O)O (stereo not drawn) | -57.7% |
| Cc1ccc(N=Nc2c(N)[nH]n3c(=O)cc(-c4ccccc4)nc23)cc1 | 7.52% |
| CC(C)N(C(=O)CN1C(=O)NC2(CCCCCC2)C1=O)C(C)C | 1.17% |
| O=C(O)Cc1ccc(NC(=O)c2ccc3c(c2)C(=O)N(Cc2ccco2)C3=O)cc1 | 3.41% |
| CS(=O)(=O)N(CC(=O)Nc1cccc(F)c1)Cc1ccccc1 | 15.8% |
| ClCc1nc2ccccc2c2ccccc12 | 11% |
| CC1CCCN(c2nc3nonc3nc2N2CCCC(C)C2)C1 (stereo not drawn) | 1.25% |
| Cc1onc(-c2ccccc2)c1C(=O)OCCOc1cccc(Cl)c1 | 1.19% |
| Nc1ccc2c(c1)N1CCN=C1S2 | 14.5% |
| Cc1ccccc1NC(=O)Cc1nc(COC(=O)c2ccc(Cl)nc2)cs1 | 2.75% |
| Clc1ccc2nc(-c3ccccn3)c(Nc3ccc4c(c3)OCO4)n2c1 | -38.2% |
| COc1ccc(NC(=O)c2sc3ncnc(N4CCN(c5ccccn5)CC4)c3c2C)cc1Cl | -23% |
| Cc1nc(C)c(-c2nnc(-c3cccc(S(=O)(=O)N(C)C)c3)o2)cc1C(=O)NN | 14.1% |
| Cc1nc2nc(C)c(CCC(=O)NCc3ccc4c(c3)OCO4)c(C)n2n1 | -9.72% |
| COc1ccc(OCC(=O)Nc2cccc(C(=O)Nc3ccccc3C(=O)O)c2)cc1 | 3.09% |

| Structure (SMILES) | hERG current change (%, negative = inhibition) at 10uM |
| --- | --- |
| COc1ccc(N(Cc2ccccc2)C(=O)c2ccccc2[N+](=O)[O-])cc1 | -17.8% |
| CN1CCN(C(=O)C2=C[C@H](c3coc4ccccc4c3=O)C[C@H](OCCCCO)O2)CC1 | -20.3% |
| Cc1ccc2cc(C)c(SCC(=O)NCc3ccco3)nc2c1 | 5.57% |
| CCOC(=O)c1sc(NC(=O)OC)c(C(=O)OC)c1C | 17.3% |
| COc1ccc(Cl)cc1NC(=O)C(C)Sc1nnc(C2CC2)n1C1CC1 (stereo not drawn) | -69.5% |
| Cc1nn(CC(=O)c2cccc(Cl)c2)c(C)c1[N+](=O)[O-] | -7.43% |
| CC1Oc2ccccc2OC1C(=O)Nc1nccs1 (stereo not drawn) | 13% |
| CC(C)n1c(=O)c(C=Nc2ccc(F)cc2)c(O)n(Cc2ccco2)c1=O | -19.7% |
| COC(=O)COc1cc(Br)c(/C=C2/SC(=O)N(CC(=O)N3CCCC3)C2=O)cc1OC | -0.455% |
| Cc1ccc(NC(=O)C2C3CCC(O3)C2C(=O)O)cc1Cl (stereo not drawn) | 4.35% |
| COC(=O)[C@H](CC(C)C)NC(=O)c1cc2c(cn1)[nH]c1ccccc12 | 2.43% |
| CC(C(=O)Nc1ccc(Cl)cc1)c1ncc(C(F)(F)F)cc1Cl (stereo not drawn) | -2.32% |
| Cc1cc2cc(CNC(=O)CCC(=O)O)ccc2n1C | 14.7% |
| O=C(CNC(=O)c1cccs1)NCC(=O)OCc1ccc(Cl)cc1 | -17.5% |
| COC(=O)C1=C(c2cc3ccccc3s2)C[C@@H]2CC[C@H]1N2C(=O)NCCS(C)=O (stereo partly drawn) | 5.66% |
| CCc1ccc(OCCNC(=O)c2cccs2)cc1 | -18% |
| O=c1cc(-c2ccccc2)nc2nc(COc3ccccc3)[nH]n12 | -3.23% |
| COC(=O)/C(C#N)=C/N(C)C | 14.5% |
| COc1ccc(C(=O)NCC(=O)N/N=C/c2c(C)[nH]c3ccccc23)cc1OC | 4.93% |
| COC(=O)C1=C(c2cc3ccccc3o2)C[C@@H]2CC[C@H]1N2C(=O)NCc1ccc(C(F)(F)F)cc1 | 9.52% |
| O=C(O)c1ccc(Oc2ccc(C(F)(F)F)cn2)cc1 | 17.5% |
